Experimental data: PubChem BioAssay AID1347120 (National Center for Advancing Translational Sciences (NCATS), 2019)
Out of some 390,000 compounds screened, about 930 (0.24%) were called active. Inconclusive results, whose numbers are uncertain, are shown with a selection of clear calls. Calls follow the shape of the dose curve; as a rule, active = well fitted activation curve with a large enough effect; inconclusive = small, poorly fitted or top-dose-only effect; inactive = no such curve, though single readings can be large or run the other way. Where the call is inconclusive, the potency comes from a doubtful curve fit.

experiment: qHTS for Suppressors of FUS Proteinopathy: Primary screen using FUS-linked yeast assay; also: nearly all actives have a fitted effect of over 55% in size;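 as to growth rescue (activation): plate controls were DMSO vehicle for no effect and reference control for full effect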; details: S. cerevisiae FUS-expressing, OD600, 24 h; Potency: growth rescue; growth rescue (activation): at 76.6 µM (top of the series)
Summary of the method: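 Absorbance at 600 nm, taken 24hr after compound addition, measured rescue of FUS-yeast growth at 30C. Induction used 2% galactose with seeding at OD 0.005. Controls: CP55940 from 92uM final, DMSO only.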
Potency is read from the fitted curve at half-maximal effect; tags tell the direction and shape of the fitted curve.

SMILES | Potency | growth rescue (activation)
CC(C)C[C@H](NC(=O)c1nc[nH]c1C(=O)NCC(=O)OCc1ccccc1)C(=O)OC(C)(C)C | inconclusive: 25.1 µM [activator, single point] | 
CCOc1ccc(NCc2cccn2-c2nnc(N3CCC(C(=O)NCc4ccc(C)cc4)CC3)s2)cc1 | inconclusive: 15.8 µM [activator, partial curve, poor fit] | 
Cc1ccc(NC(=O)/C=C/c2ccco2)cc1S(=O)(=O)N1CCCCCC1 | inconclusive: 28.2 µM [activator, single point] | 
O=C(Nc1ccc(N2CCCC2)cc1)c1cccc(F)c1 | inconclusive: 39.8 µM [activator, partial curve, poor fit] | 
C=CCN1C(=O)[C@@H](CC(=O)NCCC(C)C)[C@]2(C(=O)OC)CCCCC=C12 | inconclusive: 50.1 µM [activator, single point] | 
Cc1cccc(OP(=O)(Nc2c(C)n(C)n(-c3ccccc3)c2=O)Oc2cccc(C)c2)c1 | inconclusive: 50.1 µM [activator, single point] | 
CS(=O)(=O)N1CCN(c2ccc(NC(=O)c3ccc([N+](=O)[O-])o3)cc2)CC1 | inconclusive: 10 µM [activator, partial curve] | 
COc1ccc(C2CCC3(CCC(=O)N3CCO)CC2)cc1 (stereo unspecified) |  | inactive: -17.3%
COc1cccc([C@@H]2Nc3ccc(C(=O)O)cc3[C@@H]3C=CC[C@@H]32)c1OC | inconclusive: 50.1 µM [activator, single point] | 
CSc1cccc(NC(=O)c2cc(S(=O)(=O)N3CCc4ccccc43)cn2C)c1 | inconclusive: 15.8 µM [activator, partial curve] | 
CCOC(=O)[C@]12CCCC=C1N(Cc1ccccc1)C(=O)[C@H](CC(=O)N1CCC(c3ccccc3)CC1)C2 | inconclusive: 35.5 µM [activator, single point] | 
Cc1ccc(C(=O)Nc2nnc(NC(=S)Nc3ccccc3)s2)cc1 |  | inactive: 15.3%
C[C@@]12C(=O)N(Cc3ccco3)CC(=O)N1[C@H]1c3cc(Cl)ccc3OC[C@@H]1[C@@H]2c1ccccc1 | inconclusive: 28.2 µM [activator, single point] | 
C[C@H](CO)N1C[C@H](C)[C@@H](CN(C)Cc2ccc(Oc3ccccc3)cc2)Oc2cc(Br)ccc2S1(=O)=O | inconclusive: 50.1 µM [activator, single point] | 
COC(=O)[C@]12C[C@H](CC(=O)NCCCCc3ccccc3)C(=O)N(Cc3ccco3)C1=C[C@H](C(C)C)O[C@@H]2C1CC1 | inconclusive: 17.8 µM [activator, partial curve] | 
CN(C1CCCCC1)S(=O)(=O)c1ccc2[nH]c(=O)oc2c1 |  | inconclusive: -86% [activator]
Cc1ccnc(NC(=O)CNC(=O)c2cccs2)c1 |  | inactive: 26.5%
COc1ccc(OC)c2sc(N(Cc3cccnc3)C(=O)c3ccc(C(C)=O)cc3)nc12 | inconclusive: 22.4 µM [activator, partial curve, poor fit] | 
c1ccc2c(c1)ncn2Cc1nnc2sc(-c3ccc4c(c3)OCO4)nn12 |  | inactive: 25.4%
O=C1c2ccccc2C(=O)N1CCCc1nc2ccccc2c(=O)n1-c1cccnc1 | inconclusive: 10 µM [activator, partial curve, poor fit] | 
CCOc1ccc(-n2c(C)nc3cc(C(=O)NCCN4CCOCC4)ccc32)cc1 |  | inactive: 11.3%
Cc1cccc2sc(N(Cc3cccnc3)C(=O)Cc3ccccc3)nc12 |  | inactive: 25.9%

SMILES | Potency | growth rescue (activation)
Cc1nnc(SCc2ccccc2Cl)c2cc3occc3n12 | inconclusive: 50.1 µM [activator, single point] | 
Cc1cc(Nc2ccc(C(C)C)cc2)nc(-n2nc(C)cc2C)n1 | inconclusive: 31.6 µM [activator, single point] | 
O=C1CC2(CCN(C(=O)c3ccccc3Br)CC2)Oc2ccccc21 |  | inactive: 13%
COc1ccc(S[C@]2(C(=O)N(C)C)CC(=O)N(c3ccsc3)[C@@H]2c2ccc(OC)cc2)cc1 |  | inactive: -6.14%
CN(C(=O)Cc1c[nH]c2ccccc12)C(C(=O)Nc1ccc2c(c1)OCO2)c1ccccc1 (stereo unspecified) | inconclusive: 22.4 µM [activator, partial curve] | 
CCOC(=O)[C@H]1[C@H]2COc3ccc(Br)cc3[C@@H]2N2C(=O)c3cc(Br)ccc3NC(=O)[C@@]12C | inconclusive: 35.5 µM [activator, single point] | 
CCOc1ccccc1N(C)C(=O)Cn1cnc2onc(-c3ccc(F)cc3)c2c1=O |  | inactive: -3.56%
COCOCCn1cc(CN2CCS(=O)(=O)N(Cc3ccc(-c4ccc(C)cc4)cc3)C(C)C2=O)nn1 (stereo unspecified) | inconclusive: 28.2 µM [activator, single point] | 
O=C(OCc1cn([C@H]2C[C@H](c3ccccc3)N(C(=O)c3cccs3)C[C@@H]2O)nn1)c1ccccc1 | inconclusive: 28.2 µM [activator, single point] | 
Cc1ccccc1C1C(C#N)=C2N=C(N)c3c(sc4c3CCCCC4)N2C2=C1C(=O)CC(C)(C)C2 (stereo unspecified) | active: 28.2 µM | 
O=C(Nc1cc(S(=O)(=O)N2CCCCCC2)ccc1OCC(F)(F)F)C1CCC1 |  | inactive: 21.9%
Cc1nc(N2CCN(c3ccccn3)CC2)c2c(C)c(C(=O)Nc3c(F)cc(F)cc3Br)sc2n1 | inconclusive: 12.6 µM [activator, partial curve] | 
COc1cc(Cl)c(C)cc1Nc1c2c(nc3ccccc13)CCC2 |  | inactive: 0.625%
CCC(=O)N1CCC2(CC1)Oc1ccc(F)cc1C(=O)C21CC(c2ccc(Cl)cc2)=NO1 (stereo unspecified) | inconclusive: 39.8 µM [activator, single point] | 
Cc1cc(N2CCCC2)ccc1NC(=O)CN1C(=O)NC(C)(c2ccccc2)C1=O (stereo unspecified) | inconclusive: 50.1 µM [activator, single point] | 
COc1ccc(Cl)cc1Nc1nc(-c2sc(NC(=O)C(C)(C)C)nc2C)cs1 | inconclusive: 25.1 µM [activator, single point] | 
CCCC(=O)N/C(N)=N/c1nc2ccccc2o1 |  | inactive: -23%
CCCNC(=O)c1cc2c(c(-c3cccc(-c4ccc(F)cc4)c3)n1)[C@@H](CCO)N(S(=O)C(C)(C)C)C2 (stereo partly specified) | inconclusive: 44.7 µM [activator, single point] | 
CNC(=O)c1cccc(NC(=O)c2cc(-c3ccccc3)nc3c2cnn3C(C)C)c1 | inconclusive: 35.5 µM [activator, single point] | 
CCOC(=O)CC(=O)CSc1nc2ccccc2c(=O)n1CCc1ccccc1 |  | inactive: 22.6%
C/C(=N\NC(=O)c1cc2c(s1)CCC(C)C2)c1ccncc1 (stereo unspecified) |  | inactive: 22.4%
CCC1Nc2ncnc(N3CCc4ccccc4C3)c2N(Cc2ccc(Br)cc2)C1=O (stereo unspecified) | inconclusive: 50.1 µM [activator, single point] | 

SMILES | Potency | growth rescue (activation)
O=C(CCc1nc(-c2ccccc2F)no1)NCCc1ccc(F)cc1 |  | inactive: -6.35%
Nc1nc(Cl)cc(N2CCC(c3cc(-c4ccc(Cl)cc4Cl)n[nH]3)CC2)n1 | active: 12.6 µM | 
COc1cccc(N2CCN(C(=O)Cn3cnc4onc(-c5ccc(F)cc5)c4c3=O)CC2)c1 | inconclusive: 35.5 µM [activator, partial curve, poor fit] | 
CCOC(=O)c1c(C)nc2sc3c(=O)n(-c4ccc(OC)cc4)cnc3c2c1-c1ccc(OC)cc1 |  | inactive: -9.93%
N#CCC[C@@H]1CC[C@]2(CCCN(C(=O)c3cccnc3)C2)O1 |  | inactive: -11.5%
COc1ccc(-c2csc(NC(=O)CCCc3nc4ccccc4c(=O)[nH]3)n2)cc1OC | inconclusive: 10 µM [activator, partial curve, poor fit] | 
COc1ccc(C(=O)Nc2nc3ccc(S(=O)(=O)N4CCCC4)cc3s2)cc1 |  | inactive: -5.76%
O=C(c1cc(Cl)cc(Cl)c1)N1CCC(=O)N(C(COCc2ccccc2)Cc2ccccc2)CC1 (stereo unspecified) | inconclusive: 7.08 µM [activator, full curve, poor fit] | 
O=C(Nc1ccc(NC(=O)c2ccc(Br)cc2)c(Cl)c1)c1ccc(Br)cc1 |  | inactive: -19.2%
Cc1ccc(Nc2c(-c3ccccn3)nc3ccc(C)cn23)cc1 |  | inactive: 21.8%
COc1ccc(C(=O)NC(=S)NNC(=O)c2c(-c3ccccc3)noc2C)cc1OC |  | inactive: 38.6%
CCCCCCC[C@@H](C/C=C/CCC(=O)N(C)C/C(=C/Cl)C/C(=C\C(=O)N1C[C@H](O)CC1=O)OC)OC | inconclusive: 15.8 µM [activator, partial curve, poor fit] | 
Cc1nn(-c2ccccc2)c(C)c1C(=O)OCC(=O)N1CC(=O)Nc2ccccc21 | inconclusive: 56.2 µM [activator, partial curve, poor fit] | 
COc1cc(N)c(Cl)cc1Cl |  | inactive: 2.85%
Oc1cc2ccccc2cc1-c1n[nH]c(=S)o1 |  | inactive: 19.2%
CCCCc1nc2ccccc2n1CC(=O)N(COCC)c1c(C)cccc1CC |  | inactive: 22%
COc1cc2cc(CNc3ccccc3)c(=O)n(CC(=O)Nc3cc(C)cc(C)c3)c2cc1OC | active: 25.1 µM | 
CC(c1nc2ccccc2[nH]1)n1c(=O)c(-c2ccco2)nc2ccccc21 (stereo unspecified) | inconclusive: 50.1 µM [activator, single point] | 
CC1(C(=O)NS(=O)(=O)c2ccccc2)CCN1C(=O)Cc1ccc(-c2ccccc2)cc1 (stereo unspecified) | inconclusive: 28.2 µM [activator, single point] | 
COC(=O)C1=C(C)N(c2ccc(OC)cc2)C(C)=C(C(=O)OC)C1c1ccccc1 | inconclusive: 28.2 µM [activator, partial curve, poor fit] | 
COc1ccc(C2C(C(C)=O)=C(O)C(=O)N2c2nc3ccccc3s2)cc1OC (stereo unspecified) |  | inactive: 29.7%
O=C1N[C@@H](Cc2ccccc2)COC(=O)[C@@H](Cc2ccc(F)cc2)CC/C=C/C[C@H]1CC(=O)N(CCO)Cc1ccccc1 | inconclusive: 25.1 µM [activator, single point] | 
